This note sets out measurements from patent US20240400687A1 (Regeneron, published 2024).

Assay [1] has as its target T1, mouse PD1 (mPD1) (mouse, UniProt Q02242 25-288).
T1 sequence (looked up): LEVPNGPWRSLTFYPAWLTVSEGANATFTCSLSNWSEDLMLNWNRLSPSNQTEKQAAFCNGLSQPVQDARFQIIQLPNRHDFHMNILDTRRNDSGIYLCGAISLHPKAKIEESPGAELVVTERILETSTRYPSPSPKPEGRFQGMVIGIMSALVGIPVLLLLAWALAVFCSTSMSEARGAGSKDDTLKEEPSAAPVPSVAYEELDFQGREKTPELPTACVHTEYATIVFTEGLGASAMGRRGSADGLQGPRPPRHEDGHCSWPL
In words: cell-based or functional assay.

Assay [2] deals with T2, mouse CD20 (mCD20) (mouse, UniProt P19437 1-291).
T2 construct: whole, on cells; also called murine CD20
T2 sequence (looked up): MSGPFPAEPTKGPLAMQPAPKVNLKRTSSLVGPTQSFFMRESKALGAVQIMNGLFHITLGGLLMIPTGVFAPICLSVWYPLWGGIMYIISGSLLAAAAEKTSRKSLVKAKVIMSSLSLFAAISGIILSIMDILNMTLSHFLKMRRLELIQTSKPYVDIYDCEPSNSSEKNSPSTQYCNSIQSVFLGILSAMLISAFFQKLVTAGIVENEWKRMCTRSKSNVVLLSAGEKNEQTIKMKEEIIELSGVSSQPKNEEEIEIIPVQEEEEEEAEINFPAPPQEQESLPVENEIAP
In words: flow cytometry on MC38/mCD20 cells. The protocol: (§1) Cells (HEK 293, MC38 over-expressing mCD20, or Jurkat over-expressing mPD1) were resuspended in FACS wash (PBS with 1% FBS) at 1×10⁶ cells/mL. The staining was performed in 1×10⁵ cells per well. The antibodies were diluted with a ratio of 1:5 from a starting concentration of 1.3×10⁻⁰⁷ M. The diluted antibodies were then added into the wells containing cells. Cells were stained for 30 min at 2-8° C. and washed twice with FACS wash buffer. APC-conjugated goat anti-human IgG (Jackson Immuno Research, 109-607-003, 1:400) or AF647-conjugated goat anti-mFc Fab (Jackson Immuno Research, 115-607-185, 1:400) was added to stain the cells for 30 min at 2-8° C. Following washing, cells were fixed in 2% paraformaldehyde for 30 min at 2-8° C. After two washes, stained cells were analyzed using BD LSRFortessa™ FACS instrument. The results were analyzed by FlowJo. FSC/SSC gates were used to select mononuclear cells.

Assay [3] addresses T1, mouse PD1 (mPD1). In words: flow cytometry on Jurkat/mPD1 cells. How it is done: as §1

B1: 2 + 1 m20_mPL_3 (Fc fusion)
heavy 1: QVQLQQPGAELVRPGTSVKLSCKASGYTFTSYWMHWIKQRPGQGLEWIGVIDPSDNYTKYNQKFKGKATLTVDTSSSTAYMQLSSLTSEDSAVYFCAREGYYGSSPWFAYWGQGTLVTVSSASTKGPSVFPLAPSSKSTSGGTAALGCLVKDYFPEPVTVSWNSGALTSGVHTFPAVLQSSGLYSLSSVVTVPSSSLGTQTYICNVNHKPSNTKVDKKVEPKSCDGGGGSGGGGS[in this place about 200 residues][in this place about 250 residues]
heavy 2: QVQLQQPGAELVRPGTSVKLSCKASGYTFTSYWMHWIKQRPGQGLEWIGVIDPSDNYTKYNQKFKGKATLTVDTSSSTAYMQLSSLTSEDSAVYFCAREGYYGSSPWFAYWGQGTLVTVSSASTKGPSVFPLAPSSKSTSGGTAALGCLVKDYFPEPVTVSWNSGALTSGVHTFPAVLQSSGLYSLSSVVTVPSSSLGTQTYICNVNHKPSNTKVDKKVEPKSCDKTHTCPPCPAPEAEGAPSVFLFPPKPKDTLMISRTPEVTCVVVDVSHEDPEVKFNWYVDGVEVHNAKTKPREEQYNSTYRVVSVLTVLHQDWLNGKEYKCKVSNKALPSSIEKTISKAKGQPREPQVCTLPPSRDELTKNQVSLSCAVKGFYPSDIAVEWESNGQPENNYKTTPPVLDSDGSFFLVSKLTVDKSRWQQGNVFSCSVMHEALHNRFTQKSLSLSPGK
light: QIVMSQSPAILSASPGEKVTMTCRARSSVSYIHWYQQKPGSSPKPWIYATSNLASGVPGRFSGSGSGTSYSLTITRVEAEDAATYYCQQWSSKPPTFGGGTKLEIKRTVAAPSVFIFPPSDEQLKSGTASVVCLLNNFYPREAKVQWKVDNALQSGNSQESVTEQDSKDSTYSLSSTLTLSKADYEKHKVYACEVTHQGLSSPVTKSFNRGEC
As to B1, in assay [1], the “IC50 (M), luciferase bioassay, 1 nM CD3 bsAb” value was 7.7e-10 M and the “Max % inhibition, luciferase bioassay, 1 nM CD3 bsAb” value came to 80%.

B2: 2 + 2 m20_mPL_3 (Fc fusion)
chain: [in this place about 200 residues][in this place about 250 residues][in this place about 200 residues]
heavy: QVQLQQPGAELVRPGTSVKLSCKASGYTFTSYWMHWIKQRPGQGLEWIGVIDPSDNYTKYNQKFKGKATLTVDTSSSTAYMQLSSLTSEDSAVYFCAREGYYGSSPWFAYWGQGTLVTVSSASTKGPSVFPLAPSSKSTSGGTAALGCLVKDYFPEPVTVSWNSGALTSGVHTFPAVLQSSGLYSLSSVVTVPSSSLGTQTYICNVNHKPSNTKVDKKVEPKSCDKTHTCPPCPAPEAEGAPSVFLFPPKPKDTLMISRTPEVTCVVVDVSHEDPEVKFNWYVDGVEVHNAKTKPREEQYNSTYRVVSVLTVLHQDWLNGKEYKCKVSNKALPSSIEKTISKAKGQPREPQVCTLPPSRDELTKNQVSLSCAVKGFYPSDIAVEWESNGQPENNYKTTPPVLDSDGSFFLVSKLTVDKSRWQQGNVFSCSVMHEALHNRFTQKSLSLSPGKGGGGSGGGGSGGGGSQVQLQQPGAELVRPGTSVKLSCKASGYTFTSYWMHWIKQRPGQGLEWIGVIDPSDNYTKYNQKFKGKATLTVDTSSSTAYMQLSSLTSEDSAVYFCAREGYYGSSPWFAYWGQGTLVTVSSASTKGPSVFPLAPSSKSTSGGTAALGCLVKDYFPEPVTVSWNSGALTSGVHTFPAVLQSSGLYSLSSVVTVPSSSLGTQTYICNVNHKPSNTKVDKKVEPKSCD
light: QIVMSQSPAILSASPGEKVTMTCRARSSVSYIHWYQQKPGSSPKPWIYATSNLASGVPGRFSGSGSGTSYSLTITRVEAEDAATYYCQQWSSKPPTFGGGTKLEIKRTVAAPSVFIFPPSDEQLKSGTASVVCLLNNFYPREAKVQWKVDNALQSGNSQESVTEQDSKDSTYSLSSTLTLSKADYEKHKVYACEVTHQGLSSPVTKSFNRGEC
notes: KiH-2 x 2 Fusion, (mPD1/mPD1) x (mCD20/mCD20), 197.1 kDa; also called Molecule ID K
In the case of B2, in assay [2], the response was half-maximal at 8420 pM (EC50) and the “Max MFI” value was found to be 35300 MFI. In assay [3], the EC50 came out at 6310 pM and the “Max MFI” value worked out at 6980 MFI. Further, in assay [1], the “IC50 (M), luciferase bioassay, 2.5 nM CD3 bsAb” value is 6.5e-11 M and the “Max % inhibition, luciferase bioassay, 2.5 nM CD3 bsAb” value was 33%.

B3: 2 + 2 m20_mPL_4 (Fc fusion)
heavy: QVQLQQPGAELVRPGTSVKLSCKASGYTFTSYWMHWIKQRPGQGLEWIGVIDPSDNYTKYNQKFKGKATLTVDTSSSTAYMQLSSLTSEDSAVYFCAREGYYGSSPWFAYWGQGTLVTVSSASTKGPSVFPLAPSSKSTSGGTAALGCLVKDYFPEPVTVSWNSGALTSGVHTFPAVLQSSGLYSLSSVVTVPSSSLGTQTYICNVNHKPSNTKVDKKVEPKSCDGGGGSGGGGS[in this place about 200 residues][in this place about 250 residues]
light: QIVMSQSPAILSASPGEKVTMTCRARSSVSYIHWYQQKPGSSPKPWIYATSNLASGVPGRFSGSGSGTSYSLTITRVEAEDAATYYCQQWSSKPPTFGGGTKLEIKRTVAAPSVFIFPPSDEQLKSGTASVVCLLNNFYPREAKVQWKVDNALQSGNSQESVTEQDSKDSTYSLSSTLTLSKADYEKHKVYACEVTHQGLSSPVTKSFNRGEC
B3: in assay [1], the “IC50 (M), luciferase bioassay, 1 nM CD3 bsAb” value was 1.91e-10 M and the “Max % inhibition, luciferase bioassay, 1 nM CD3 bsAb” value came to 84%.

B4: m20_mPL_1 (Fc fusion)
chain: [in this place about 200 residues][in this place about 250 residues]
heavy: QVQLQQPGAELVRPGTSVKLSCKASGYTFTSYWMHWIKQRPGQGLEWIGVIDPSDNYTKYNQKFKGKATLTVDTSSSTAYMQLSSLTSEDSAVYFCAREGYYGSSPWFAYWGQGTLVTVSSASTKGPSVFPLAPSSKSTSGGTAALGCLVKDYFPEPVTVSWNSGALTSGVHTFPAVLQSSGLYSLSSVVTVPSSSLGTQTYICNVNHKPSNTKVDKKVEPKSCDKTHTCPPCPAPEAEGAPSVFLFPPKPKDTLMISRTPEVTCVVVDVSHEDPEVKFNWYVDGVEVHNAKTKPREEQYNSTYRVVSVLTVLHQDWLNGKEYKCKVSNKALPSSIEKTISKAKGQPREPQVCTLPPSRDELTKNQVSLSCAVKGFYPSDIAVEWESNGQPENNYKTTPPVLDSDGSFFLVSKLTVDKSRWQQGNVFSCSVMHEALHNRFTQKSLSLSPGK
light: QIVMSQSPAILSASPGEKVTMTCRARSSVSYIHWYQQKPGSSPKPWIYATSNLASGVPGRFSGSGSGTSYSLTITRVEAEDAATYYCQQWSSKPPTFGGGTKLEIKRTVAAPSVFIFPPSDEQLKSGTASVVCLLNNFYPREAKVQWKVDNALQSGNSQESVTEQDSKDSTYSLSSTLTLSKADYEKHKVYACEVTHQGLSSPVTKSFNRGEC
notes: KiH-1 x N-Ligand, mPD1 x mCD20, 123.2 kDa; also called Molecule ID A
For the molecule B4, the figures for the “Max MFI” value in assay [2] and in assay [3] were 16800 MFI and 8150 MFI, respectively. Moreover, the “Max % inhibition, luciferase bioassay, 2.5 nM CD3 bsAb” value in assay [1] was determined as 18%.
